Measured values: the supplement of paper PMC3334620
In all, about 33,000 sequences were measured (“E-score (-0.5 to 0.5)”: median about -0.043, highest 2% from about 0.37 on). This is one part of the list.

Target: T1, Upc2 (UniProt Q12151)
T1 sequence: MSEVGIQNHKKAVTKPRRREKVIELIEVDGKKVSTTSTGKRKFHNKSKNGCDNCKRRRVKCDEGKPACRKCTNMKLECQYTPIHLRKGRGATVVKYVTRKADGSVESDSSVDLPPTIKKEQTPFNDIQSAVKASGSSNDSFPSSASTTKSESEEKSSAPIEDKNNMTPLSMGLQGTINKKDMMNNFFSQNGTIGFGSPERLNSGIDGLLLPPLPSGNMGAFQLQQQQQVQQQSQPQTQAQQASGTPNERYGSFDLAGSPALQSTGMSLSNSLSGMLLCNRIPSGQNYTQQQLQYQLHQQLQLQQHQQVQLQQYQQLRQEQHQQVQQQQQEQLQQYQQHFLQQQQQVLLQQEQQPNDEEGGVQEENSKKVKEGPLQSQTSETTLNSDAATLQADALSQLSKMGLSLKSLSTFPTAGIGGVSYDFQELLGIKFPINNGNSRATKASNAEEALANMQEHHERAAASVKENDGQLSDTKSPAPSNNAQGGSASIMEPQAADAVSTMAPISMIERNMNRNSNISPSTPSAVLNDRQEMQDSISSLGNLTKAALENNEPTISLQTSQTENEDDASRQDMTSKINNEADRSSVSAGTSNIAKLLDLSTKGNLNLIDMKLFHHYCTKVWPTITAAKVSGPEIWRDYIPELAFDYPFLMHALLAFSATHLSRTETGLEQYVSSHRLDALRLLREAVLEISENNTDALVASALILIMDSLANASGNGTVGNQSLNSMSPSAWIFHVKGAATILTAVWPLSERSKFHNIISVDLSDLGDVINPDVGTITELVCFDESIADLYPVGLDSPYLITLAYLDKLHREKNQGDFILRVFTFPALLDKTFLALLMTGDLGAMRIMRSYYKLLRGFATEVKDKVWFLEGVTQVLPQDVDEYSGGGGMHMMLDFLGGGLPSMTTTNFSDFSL
Assay: PBM E-score (8-mer binding enrichment) (E-score (-0.5 to 0.5)); higher = stronger / more preferred TF binding; most listed sequences are background and not binding sites
Conditions: protein concentration: 200 nM; construct: GST-full length
Experimental: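 Universal 'all 10-mer' protein binding microarrays (Agilent AMADID 015681) probed with GST-tagged S. cerevisiae TFs (full-length or DBD) made by in vitro transcription/translation (PURExpress), about 100-200 nM. Bound TF was detected with fluorescent anti-GST. Each ungapped 8-mer (which stands for itself and its reverse complement) is scored by the PBM enrichment score (E-score), a modified Wilcoxon-Mann-Whitney statistic from -0.5 to +0.5, computed with the Universal PBM Analysis Suite. Scale: above 0.35 generally sequence-specific binding.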

| Sequence | PBM E-score |
| --- | --- |
| ATTTTACC | 0.00835 |
| GGACAGAC | -0.209 |
| CGCGACAC | 0.013 |
| ATAGGCGG | -0.0532 |
| AAATGCGG | 0.0321 |
| CACCACCA | -0.165 |
| CCTTAACG | 0.38 |
| ACATGCGT | -0.0249 |
| ACAATGTG | -0.00829 |
| GTTTGAAA | 0.182 |
| CGCTTACC | 0.301 |
| GCCACATA | -0.153 |
| CTTTGCGC | 0.0115 |
| CATTTCGC | 0.16 |
| ATCAAGCG | -0.0631 |
| AAAATGAA | -0.0379 |
| CGACGGAC | 0.101 |
| GATGTGTA | 0.0809 |
| CCATTGGA | -0.223 |
| GTTACTCA | 0.11 |
| CTTGCGCA | -0.0291 |
| CCGACGGC | 0.0853 |
| CGTGATGC | -0.18 |
| CGGGATGC | -0.0618 |
| GCGCATTA | 0.0866 |

| Sequence | PBM E-score |
| --- | --- |
| AGATCTTA | 0.0589 |
| CTACACAC | -0.0342 |
| AATAAGCG | 0.115 |
| CCCGTAGC | 0.0891 |
| CAACGTTA | 0.0939 |
| GACGGGGC | -0.113 |
| AATTCACA | -0.0315 |
| GTATTCCA | 0.0694 |
| CGAAGTGC | 0.161 |
| CCTAGGCG | -0.162 |
| TTACTAAA | 0.196 |
| GGGGGCCA | -0.166 |
| ATTACTAA | 0.00226 |
| ACCCATTC | -0.105 |
| ATACTATG | -0.0405 |
| ACATGCTG | 0.0413 |
| ATAATGGA | -0.128 |
| ACACAACC | -0.0135 |
| GTCAGAAA | -0.0771 |
| CATGATTC | -0.195 |
| AATAAAAC | 0.0783 |
| GGCAAGTA | -0.213 |
| CGTGCAGC | -0.14 |
| AACATATA | 0.0905 |
| AGGGCTGG | -0.235 |

| Sequence | PBM E-score |
| --- | --- |
| CTAAGTTC | -0.0418 |
| GACCCGTC | 0.0413 |
| CGGGGGGA | -0.202 |
| CATTTGGA | -0.209 |
| AGAGTTCA | -0.208 |
| CACCGACC | -0.0762 |
| CAAGCAAG | -0.208 |
| AATGTTAA | -0.175 |
| AGACCGCA | -0.191 |
| ACTGCGAT | -0.199 |
| GGAGATCC | -0.24 |
| AATGTCTA | -0.127 |
| TTGCAAAA | 0.0548 |
| ATTACCGC | 0.0457 |
| GTCACTAA | 0.0743 |
| AGGCGCGA | 0.0335 |
| GCTTCCCC | -0.156 |
| ATCAACCC | 0.112 |
| TCAAGGGA | -0.267 |
| AGCTCCAA | -0.184 |
| CCTGGCAA | -0.125 |
| GGCCTCGA | -0.233 |
| CAAAAAGA | -0.0467 |
| CGTTAGGC | 0.0828 |
| ACCCAGAG | -0.0786 |

| Sequence | PBM E-score |
| --- | --- |
| CTACGACA | 0.311 |
| CCCGCCAG | 0.0836 |
| CTCGGAGC | 0.0127 |
| AACCTACT | -0.113 |
| CATTTCCG | -0.022 |
| AAGGGTGC | -0.238 |
| TAGTCTCA | 0.0124 |
| ACCCCACA | -0.121 |
| ACCGCCGT | 0.213 |
| GCGTAGCA | 0.109 |
| TAACCCTA | -0.158 |
| CTAAGTAG | -0.183 |
| AGTACCGG | -0.228 |
| AGAATACC | -0.0185 |
| GACCGGGC | -0.0541 |
| CGAGACTC | 0.163 |
| GAGGTCGC | -0.042 |
| TAGTTTAA | 0.18 |
| CATGCATG | -0.288 |
| AGTGGCCA | -0.135 |
| AACTCATT | -0.165 |
| CTGTAGCC | -0.116 |
| AAGCTTCC | -0.176 |
| GGGCAGGA | -0.295 |
| ATTATGTC | 0.0356 |

| Sequence | PBM E-score |
| --- | --- |
| TGTAGCAA | -0.142 |
| GCTCACCA | -0.271 |
| AATTACCA | -0.098 |
| CGCTTACA | 0.178 |
| GCCCATAA | -0.0969 |
| GAATCGAC | 0.00593 |
| CTAACCTA | -0.0682 |
| GAGACTGA | -0.216 |
| GGGACGTA | 0.147 |
| AAAAGTGT | -0.0765 |
| GCTCCCCA | -0.0976 |
| CTTGGGCA | -0.25 |
| ACCCTGCA | -0.0278 |
| CAACATGG | -0.119 |
| ATGGCACG | -0.226 |
| AACGATTA | 0.364 |
| ATCGGCGA | -0.0837 |
| ATACGTAT | 0.372 |
| ATAGATTC | -0.12 |
| ACTGACAT | -0.168 |
| CCTCTAAC | 0.0275 |
| GGCTAAAA | -0.236 |
| AGACGAGA | 0.184 |
| ATAGATCC | -0.0535 |
| ATTTTACG | 0.394 |

| Sequence | PBM E-score |
| --- | --- |
| CGAATGAG | 0.0933 |
| CAGTAATC | -0.171 |
| AGACAAAG | 0.0658 |
| AACTTTAT | -0.0521 |
| TAATAACA | 0.0903 |
| GCCATGTA | -0.0374 |
| ACGATCCA | 0.306 |
| AACGATAC | 0.413 |
| GCATCGCA | -0.0567 |
| AATTAGAT | 0.0833 |
| GCCGAAAC | -0.037 |
| GATAGTCC | -0.129 |
| CCACTCCG | -0.08 |
| GTATTGGA | -0.00883 |
| GATTGAGA | -0.0357 |
| AAGGTTGG | -0.0326 |
| CTTAGTCA | -0.218 |
| AAGCTACG | 0.256 |
| ACCGGATC | -0.0922 |
| ATATTCAA | 0.0351 |
| GGACAAGA | -0.136 |
| CCTAAGAA | -0.11 |
| GTCCCCCA | -0.157 |
| GCAATGCC | -0.00733 |
| CCACGTAA | 0.103 |

| Sequence | PBM E-score |
| --- | --- |
| ATCCGTAC | 0.366 |
| ACATGCAA | -0.0367 |
| CGATGAAC | 0.127 |
| ACAAGTGG | -0.2 |
| CCTCGCGA | 0.207 |
| AGGCGGTC | -0.0142 |
| CCTGTTTA | 0.017 |
| CACGTGGC | -0.224 |
| CGAGTAAG | 0.113 |
| GGACCACC | -0.112 |
| GGCCCACA | -0.0602 |
| CTTAAACC | 0.0632 |
| GACAATCA | -0.00959 |
| AGTATTTA | -0.0307 |
| AGCTAGCT | -0.115 |
| AACACGGT | 0.0435 |
| GAGGAGGC | -0.11 |
| CTGAAACA | -0.174 |
| ATGGTAGA | -0.17 |
| CTTCAAAC | 0.122 |
| AGCTAGTA | 0.0399 |
| GCGATGAA | -0.011 |
| AGAAATAC | 0.0311 |
| AGGATACG | 0.332 |
| CTTTCTTC | -0.158 |

| Sequence | PBM E-score |
| --- | --- |
| CGATGTAG | 0.036 |
| AACAAATT | 0.00094 |
| CTAACGGA | 0.0896 |
| GGAACATA | 0.00323 |
| GAATGAGA | -0.237 |
| AGCATGGG | -0.249 |
| GAAAAGTA | 0.0477 |
| AATGTGCA | 0.0502 |
| TTGCGAAA | 0.0964 |
| AAGTTTCC | -0.0551 |
| AAGCAAGC | -0.114 |
| AGTGAGCG | -0.0187 |
| GTAAATAC | 0.175 |
| GGAGTGCA | -0.0479 |
| ACTTCGAT | 0.137 |
| CGCTACTC | 0.0112 |
| AAGGGGTG | -0.265 |
| GCCTGCAA | -0.0133 |
| AGTGTAGC | -0.14 |
| AGAGCTAG | -0.113 |
| CTAGAGGA | -0.337 |
| GTAGTCAC | -0.225 |
| CCGTTCCC | 0.385 |
| ACAGCAAT | -0.0404 |
| GAGCAGCA | -0.098 |

| Sequence | PBM E-score |
| --- | --- |
| ATACGATC | 0.465 |
| GATCTGCC | -0.145 |
| AAAGAATC | -0.0264 |
| AGGGCTCG | 0.224 |
| AAGAAATG | -0.0455 |
| CCTCACCA | -0.0918 |
| ACCGAGGG | 0.137 |
| AAGTGGTA | -0.0616 |
| ATTTTTGA | -0.136 |
| CTACTCTA | -0.0845 |
| CGATTAAA | 0.282 |
| GATCTGAC | -0.0617 |
| ATTTGGTA | -0.0347 |
| CCCGGGTC | -0.162 |
| AGCGCGGC | -0.164 |
| CGGGTAAA | 0.18 |
| CATCCTCG | 0.109 |
| AGCGTTCC | 0.117 |
| GATTAATC | 0.101 |
